The supplement of paper PMC11876631
± gives the standard deviation of the averaged measurements. Laboratory Escherichia coli strains with one amino-acid change in an essential protein, pooled on minimal glucose agar with carbenicillin or gentamicin at twice the control MIC (plus kanamycin and chloramphenicol for the plasmids), 48 h. Fold change of barcode share against drug-free plates; higher = less susceptible. Active = above 20 in both replicates (the paper's putatively resistant). '<' = one read or none on drug, '>' = one read or none on a drug-free plate. Shares are relative, so most strains fall below 1 when a few take over. Listed are strains with at least 15 reads on both drug-free plates, and hits; most hits rest on fewer reference reads. Replicate rank correlation about 0.5. Edits are read from barcodes.

Target: Escherichia coli (laboratory strain)
Assay: barcode share on antibiotic plates over drug-free plates; higher = less susceptible
Protocol: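 A pool of E. coli strains, each edited to carry one amino-acid change in an essential protein, was grown for 48 h on minimal glucose agar with or without antibiotic; strain barcodes were sequenced; mean of two replicates.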

[1] = antibiotic: carbenicillin, 2× MIC (3.1 µg/mL)
[2] = antibiotic: gentamicin, 2× MIC (MIC 0.45 µg/mL)

Row | Protein | fold change of barcode share [1] | fold change of barcode share [2]
1 | pdxB V96Q (protein) MKILVDENMPYARDLFSRLGEVTAVPGRPIPVAQLADADALMVRSVTKVNESLLAGKPIKFVGTATAGTDHVDEAWLKQAGIGFSAAPGCNAIAVQEYVFSSLLMLAERDGFSLYDRTVGIVGVGNVGRRLQARLEALGIKTLLCDPPRADRGDEGDFRSLDELVQRADILTFHTPLFKDGPYKTLHLADEKLIRSLKPGAILINACRGAVVDNTALLTCLNEGQKLSVVLDVWEGEPELNVELLKKVDIGTSHIAGYTLEGKARGTTQVFEAYSKFIGHEQHVALDTLLPAPEFGRITLHGPLDQPTLKRLVHLVYDVRRDDAPLRKVAGIPGEFDKLRKNYLERREWSSLYVICDDASAASLLCKLGFNAVHHPAR | 0.425 ± 0.097 | 0.0121 ± 0.0033
2 | pdxB L104Q (protein) MKILVDENMPYARDLFSRLGEVTAVPGRPIPVAQLADADALMVRSVTKVNESLLAGKPIKFVGTATAGTDHVDEAWLKQAGIGFSAAPGCNAIAVVEYVFSSLQMLAERDGFSLYDRTVGIVGVGNVGRRLQARLEALGIKTLLCDPPRADRGDEGDFRSLDELVQRADILTFHTPLFKDGPYKTLHLADEKLIRSLKPGAILINACRGAVVDNTALLTCLNEGQKLSVVLDVWEGEPELNVELLKKVDIGTSHIAGYTLEGKARGTTQVFEAYSKFIGHEQHVALDTLLPAPEFGRITLHGPLDQPTLKRLVHLVYDVRRDDAPLRKVAGIPGEFDKLRKNYLERREWSSLYVICDDASAASLLCKLGFNAVHHPAR | 0.625 ± 0.029 | < 0.0112
3 | pdxB L104D (protein) MKILVDENMPYARDLFSRLGEVTAVPGRPIPVAQLADADALMVRSVTKVNESLLAGKPIKFVGTATAGTDHVDEAWLKQAGIGFSAAPGCNAIAVVEYVFSSLDMLAERDGFSLYDRTVGIVGVGNVGRRLQARLEALGIKTLLCDPPRADRGDEGDFRSLDELVQRADILTFHTPLFKDGPYKTLHLADEKLIRSLKPGAILINACRGAVVDNTALLTCLNEGQKLSVVLDVWEGEPELNVELLKKVDIGTSHIAGYTLEGKARGTTQVFEAYSKFIGHEQHVALDTLLPAPEFGRITLHGPLDQPTLKRLVHLVYDVRRDDAPLRKVAGIPGEFDKLRKNYLERREWSSLYVICDDASAASLLCKLGFNAVHHPAR | 1.34 ± 0.26 | –
4 | pdxB V96P (protein) MKILVDENMPYARDLFSRLGEVTAVPGRPIPVAQLADADALMVRSVTKVNESLLAGKPIKFVGTATAGTDHVDEAWLKQAGIGFSAAPGCNAIAVPEYVFSSLLMLAERDGFSLYDRTVGIVGVGNVGRRLQARLEALGIKTLLCDPPRADRGDEGDFRSLDELVQRADILTFHTPLFKDGPYKTLHLADEKLIRSLKPGAILINACRGAVVDNTALLTCLNEGQKLSVVLDVWEGEPELNVELLKKVDIGTSHIAGYTLEGKARGTTQVFEAYSKFIGHEQHVALDTLLPAPEFGRITLHGPLDQPTLKRLVHLVYDVRRDDAPLRKVAGIPGEFDKLRKNYLERREWSSLYVICDDASAASLLCKLGFNAVHHPAR | 0.409 ± 0.034 | 0.0117 ± 0.00075
5 | pdxB V96D (protein) MKILVDENMPYARDLFSRLGEVTAVPGRPIPVAQLADADALMVRSVTKVNESLLAGKPIKFVGTATAGTDHVDEAWLKQAGIGFSAAPGCNAIAVDEYVFSSLLMLAERDGFSLYDRTVGIVGVGNVGRRLQARLEALGIKTLLCDPPRADRGDEGDFRSLDELVQRADILTFHTPLFKDGPYKTLHLADEKLIRSLKPGAILINACRGAVVDNTALLTCLNEGQKLSVVLDVWEGEPELNVELLKKVDIGTSHIAGYTLEGKARGTTQVFEAYSKFIGHEQHVALDTLLPAPEFGRITLHGPLDQPTLKRLVHLVYDVRRDDAPLRKVAGIPGEFDKLRKNYLERREWSSLYVICDDASAASLLCKLGFNAVHHPAR | 0.717 ± 0.19 | 0.0157 ± 0.0066
6 | pdxB V313A (protein) MKILVDENMPYARDLFSRLGEVTAVPGRPIPVAQLADADALMVRSVTKVNESLLAGKPIKFVGTATAGTDHVDEAWLKQAGIGFSAAPGCNAIAVVEYVFSSLLMLAERDGFSLYDRTVGIVGVGNVGRRLQARLEALGIKTLLCDPPRADRGDEGDFRSLDELVQRADILTFHTPLFKDGPYKTLHLADEKLIRSLKPGAILINACRGAVVDNTALLTCLNEGQKLSVVLDVWEGEPELNVELLKKVDIGTSHIAGYTLEGKARGTTQVFEAYSKFIGHEQHVALDTLLPAPEFGRITLHGPLDQPTLKRLAHLVYDVRRDDAPLRKVAGIPGEFDKLRKNYLERREWSSLYVICDDASAASLLCKLGFNAVHHPAR | 0.594 ± 0.29 | < 0.0144
7 | pdxB L104W (protein) MKILVDENMPYARDLFSRLGEVTAVPGRPIPVAQLADADALMVRSVTKVNESLLAGKPIKFVGTATAGTDHVDEAWLKQAGIGFSAAPGCNAIAVVEYVFSSLWMLAERDGFSLYDRTVGIVGVGNVGRRLQARLEALGIKTLLCDPPRADRGDEGDFRSLDELVQRADILTFHTPLFKDGPYKTLHLADEKLIRSLKPGAILINACRGAVVDNTALLTCLNEGQKLSVVLDVWEGEPELNVELLKKVDIGTSHIAGYTLEGKARGTTQVFEAYSKFIGHEQHVALDTLLPAPEFGRITLHGPLDQPTLKRLVHLVYDVRRDDAPLRKVAGIPGEFDKLRKNYLERREWSSLYVICDDASAASLLCKLGFNAVHHPAR | 0.657 ± 0.36 | < 0.0115
